Assay results reported in the supplement of paper PMC10369915.
This is one part of the list. No stated cut-off is given here; in the data, active = 3.2 or more and inactive = the rest. Only a few entries rise above the background.

Legend:
Assay in all cases: enrichment score (SH2-bound / input frequency) (ratio); bacterial display of known human phosphotyrosine sites (pTyr-Var adds point mutants) read by sequencing; higher = stronger binding; tyrosines were phosphorylated by kinases first
Conditions in all cases: peptide library: pTyr-Var
SHP2 C-SH2 domain E139D = target: SHP2 C-SH2 domain E139D
[1] = target: SHP2 C-SH2 domain wild-type
SHP2 N-SH2 domain L43F = target: SHP2 N-SH2 domain L43F
SHP2 N-SH2 domain T42A = target: SHP2 N-SH2 domain T42A
SHP2 N-SH2 domain T52S = target: SHP2 N-SH2 domain T52S
[2] = target: SHP2 N-SH2 domain wild-type

Measured: enrichment score
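Further: displayed peptides selected on beads carrying the immobilized SH2 domain, with library peptides lacking any tyrosine serving as negative controls.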

B1: MMP3_Y42 (peptide)
chain: YLENYYDLKKD
inactive: SHP2 C-SH2 domain E139D 1.26 | [1] 1.28 | SHP2 N-SH2 domain L43F 1.18 | SHP2 N-SH2 domain T42A 1.46 | SHP2 N-SH2 domain T52S 1.31 | [2] 0.992

B2: MMP3_Y42_K45E_YF (peptide)
chain: FLENFYDLEKD
inactive: SHP2 C-SH2 domain E139D 1.52 | [1] 1.18 | SHP2 N-SH2 domain L43F 1.37 | SHP2 N-SH2 domain T42A 1.03 | SHP2 N-SH2 domain T52S 1.37 | [2] 1.43

B3: MMP8_Y36_E38K_YF (peptide)
chain: KTVQDYLKKFF
inactive: SHP2 C-SH2 domain E139D 0.812 | [1] 0.634 | SHP2 N-SH2 domain L43F 0.785 | SHP2 N-SH2 domain T42A 0.958 | SHP2 N-SH2 domain T52S 0.807 | [2] 0.665

B4: MMP9_Y241_R239H (peptide)
chain: FEGHSYSACTT
inactive: SHP2 C-SH2 domain E139D 0.875 | [1] 0.959 | SHP2 N-SH2 domain L43F 0.674 | SHP2 N-SH2 domain T42A 0.788 | SHP2 N-SH2 domain T52S 0.658 | [2] 1.11

B5: MMUT_Y146 (peptide)
chain: ATHRGYDSDNP
inactive: SHP2 C-SH2 domain E139D 0.522 | [1] 0.523 | SHP2 N-SH2 domain L43F 0.497 | SHP2 N-SH2 domain T42A 0.472 | SHP2 N-SH2 domain T52S 0.477 | [2] 0.583

B6: MMUT_Y146_G145S (peptide)
chain: ATHRSYDSDNP
inactive: SHP2 C-SH2 domain E139D 0.563 | [1] 0.483 | SHP2 N-SH2 domain L43F 0.537 | SHP2 N-SH2 domain T42A 0.5 | SHP2 N-SH2 domain T52S 0.436 | [2] 0.588

B7: MMUT_Y146_S148L (peptide)
chain: ATHRGYDLDNP
inactive: SHP2 C-SH2 domain E139D 0.658 | [1] 0.768 | SHP2 N-SH2 domain L43F 0.741 | SHP2 N-SH2 domain T42A 0.652 | SHP2 N-SH2 domain T52S 0.598 | [2] 0.937

B8: MMUT_Y287 (peptide)
chain: ADGLEYSRTGL
inactive: SHP2 C-SH2 domain E139D 0.317 | [1] 0.388 | SHP2 N-SH2 domain L43F 0.308 | SHP2 N-SH2 domain T42A 0.489 | SHP2 N-SH2 domain T52S 0.454 | [2] 0.435

B9: MMUT_Y287_G291E (peptide)
chain: ADGLEYSRTEL
inactive: SHP2 C-SH2 domain E139D 0.467 | [1] 0.548 | SHP2 N-SH2 domain L43F 0.569 | SHP2 N-SH2 domain T42A 0.464 | SHP2 N-SH2 domain T52S 0.523 | [2] 0.633

B10: MMUT_Y287_S288P (peptide)
chain: ADGLEYPRTGL
inactive: SHP2 C-SH2 domain E139D 0.658 | [1] 0.782 | SHP2 N-SH2 domain L43F 0.736 | SHP2 N-SH2 domain T42A 0.559 | SHP2 N-SH2 domain T52S 0.59 | [2] 0.685

B11: MMUT_Y364_R369C (peptide)
chain: TEQDPYNNIVC
inactive: SHP2 C-SH2 domain E139D 0.693 | [1] 0.616 | SHP2 N-SH2 domain L43F 0.565 | SHP2 N-SH2 domain T42A 0.638 | SHP2 N-SH2 domain T52S 0.61 | [2] 0.655

B12: MMUT_Y364_R369H (peptide)
chain: TEQDPYNNIVH
inactive: SHP2 C-SH2 domain E139D 0.509 | [1] 0.552 | SHP2 N-SH2 domain L43F 0.473 | SHP2 N-SH2 domain T42A 0.408 | SHP2 N-SH2 domain T52S 0.482 | [2] 0.648

B13: MMUT_Y364_V368D (peptide)
chain: TEQDPYNNIDR
inactive: SHP2 C-SH2 domain E139D 0.6 | [1] 0.467 | SHP2 N-SH2 domain L43F 0.551 | SHP2 N-SH2 domain T42A 0.423 | SHP2 N-SH2 domain T52S 0.581 | [2] 0.511

B14: MOCS2_Y170 (peptide)
chain: WKKEIYEESST
inactive: SHP2 C-SH2 domain E139D 0.921 | [1] 0.778 | SHP2 N-SH2 domain L43F 0.877 | SHP2 N-SH2 domain T42A 0.79 | SHP2 N-SH2 domain T52S 1.01 | [2] 0.802

B15: MORC2_Y100_Q96E (peptide)
chain: TEIGQYGNGLK
inactive: SHP2 C-SH2 domain E139D 0.772 | [1] 0.735 | SHP2 N-SH2 domain L43F 0.64 | SHP2 N-SH2 domain T42A 0.517 | SHP2 N-SH2 domain T52S 0.733 | [2] 0.72

B16: MPG_Y71 (peptide)
chain: TTPGPYRSIYF
active: SHP2 N-SH2 domain L43F 3.52 | SHP2 N-SH2 domain T42A 3.35 | SHP2 N-SH2 domain T52S 4.4
inactive: SHP2 C-SH2 domain E139D 0.81 | [1] 2.24 | [2] 1.04

B17: MPG_Y71_Y71H (peptide)
chain: TTPGPHRSIYF
inactive: SHP2 C-SH2 domain E139D 0.675 | [1] 0.673 | SHP2 N-SH2 domain L43F 0.682 | SHP2 N-SH2 domain T42A 0.525 | SHP2 N-SH2 domain T52S 0.814 | [2] 0.87

B18: MPG_Y71_Y71H_YF (peptide)
chain: TTPGPHRSIFF
inactive: SHP2 C-SH2 domain E139D 0.843 | [1] 0.778 | SHP2 N-SH2 domain L43F 0.943 | SHP2 N-SH2 domain T42A 0.869 | SHP2 N-SH2 domain T52S 0.815 | [2] 0.63

B19: MPI_Y46 (peptide)
chain: AEDKPYAELWM
inactive: SHP2 C-SH2 domain E139D 1.16 | [1] 1.33 | SHP2 N-SH2 domain L43F 1.23 | SHP2 N-SH2 domain T52S 1.14 | [2] 1.02
active: SHP2 N-SH2 domain T42A 3.75
